Measured values published in publication PMC4336329 (PLoS ONE, 2015).
Screen size: about 310,000 compounds; about 2,200 (0.71%) showed an effect of 50% or more. Effects have a minus sign here. The list shows a part of the results.

These compounds were tested against human ether-à-go-go-related gene (hERG) potassium channel (human, UniProt Q12809) (assay: primary screen, population patch clamp on CHO cells stably expressing hERG).
human ether-à-go-go-related gene (hERG) potassium channel, sequence (Q12809 whole entry, looked up): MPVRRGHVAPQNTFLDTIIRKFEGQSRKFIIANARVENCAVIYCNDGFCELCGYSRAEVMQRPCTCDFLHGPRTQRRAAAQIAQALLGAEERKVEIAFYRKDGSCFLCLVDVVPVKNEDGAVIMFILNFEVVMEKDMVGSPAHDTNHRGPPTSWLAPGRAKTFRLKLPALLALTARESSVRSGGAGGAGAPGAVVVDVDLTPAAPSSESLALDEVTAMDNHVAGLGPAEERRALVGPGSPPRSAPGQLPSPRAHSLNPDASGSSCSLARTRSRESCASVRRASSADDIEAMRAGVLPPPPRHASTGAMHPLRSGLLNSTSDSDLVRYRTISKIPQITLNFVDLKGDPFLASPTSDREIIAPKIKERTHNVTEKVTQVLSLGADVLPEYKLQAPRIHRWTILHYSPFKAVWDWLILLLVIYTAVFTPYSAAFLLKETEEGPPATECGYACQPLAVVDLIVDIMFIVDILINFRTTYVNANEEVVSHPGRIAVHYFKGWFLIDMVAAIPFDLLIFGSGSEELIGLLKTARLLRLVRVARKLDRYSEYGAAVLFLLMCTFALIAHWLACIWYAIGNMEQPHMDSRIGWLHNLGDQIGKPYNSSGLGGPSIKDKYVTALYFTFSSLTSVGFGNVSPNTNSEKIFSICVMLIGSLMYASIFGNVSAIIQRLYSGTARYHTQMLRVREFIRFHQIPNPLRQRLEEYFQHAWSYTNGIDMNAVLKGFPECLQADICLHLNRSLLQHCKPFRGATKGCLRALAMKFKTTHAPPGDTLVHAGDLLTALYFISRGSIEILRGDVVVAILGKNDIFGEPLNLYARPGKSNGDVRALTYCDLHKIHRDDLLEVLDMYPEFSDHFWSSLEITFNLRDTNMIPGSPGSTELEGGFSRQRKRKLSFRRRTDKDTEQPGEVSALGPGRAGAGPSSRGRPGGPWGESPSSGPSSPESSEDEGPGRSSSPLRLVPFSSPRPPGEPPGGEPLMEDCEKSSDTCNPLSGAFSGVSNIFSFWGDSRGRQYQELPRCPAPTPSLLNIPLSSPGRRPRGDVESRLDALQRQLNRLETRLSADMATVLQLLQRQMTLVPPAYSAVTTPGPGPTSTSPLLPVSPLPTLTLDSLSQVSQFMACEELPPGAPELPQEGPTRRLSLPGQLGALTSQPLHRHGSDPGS
`COC(=O)c1ccccc1NC(=O)CSc1nccc(C)n1` was tested, and the “hERG current change (%, negative = inhibition) at 1uM” value was 13.9%.
In the case of `COc1ccc(NC(=O)c2cc(CC(C)C)nc3ccccc23)cc1`, the “hERG current change (%, negative = inhibition) at 1uM” value is reported as 10.6%.
In the case of `Cc1ccc(OCC(=O)Nc2ccc3c(c2)nc(CCN2CCC(C)CC2)n3C)cc1`, the “hERG current change (%, negative = inhibition) at 1uM” value is reported as -53.3%.
In the case of `COc1cc(SC)ccc1C(=O)OC1CCOC1=O` (centres unmarked), the “hERG current change (%, negative = inhibition) at 1uM” value is reported as 9%.
`O=C1NC(=O)[C@@H]2C3c4ccccc4C=CN3[C@H](C(=O)c3cccs3)[C@H]12` (some centres unmarked) was tested, and the “hERG current change (%, negative = inhibition) at 1uM” value was 11.9%.
With `O=C(NCCOC12CC3CC(CC(C3)C1)C2)c1cccc(Br)c1` the “hERG current change (%, negative = inhibition) at 1uM” value was 11.2%.
In the case of `Cc1oc(-c2cccc(Cl)c2)nc1CN1CCCC(C(=O)NCCCN2CCOCC2)C1` (centres unmarked), the “hERG current change (%, negative = inhibition) at 1uM” value is reported as 6.68%.
With `COc1cccc(CNC(=O)[C@H](CC(C)C)NC(=O)N2CCn3c2nc2ccccc23)c1` the “hERG current change (%, negative = inhibition) at 1uM” value was 9.42%.
For `CCOc1ccc(CCNC(=O)c2nnn(CC(=O)Nc3ccccc3C)c2N)cc1OCC`, the “hERG current change (%, negative = inhibition) at 1uM” value was 8.36%.
`Cn1c(C(C(=O)NCC2CCCO2)N(CCc2ccccc2)C(=O)Cn2nnc3ccccc32)nc2ccccc21` (centres unmarked) was tested, and the “hERG current change (%, negative = inhibition) at 1uM” value was 9.83%.
In the case of `O=C(COC(=O)c1cccnc1Cl)Nc1cc(S(=O)(=O)N2CCOCC2)ccc1Cl`, the “hERG current change (%, negative = inhibition) at 1uM” value is reported as 1.41%.
`O=C(NC1CCCC1)c1ccc2c(c1)S(=O)(=O)c1ccccc1C2=O` was tested, and the “hERG current change (%, negative = inhibition) at 1uM” value was 2%.
With `CCOc1ccc(N(CC(=O)NCCSCc2ccccc2)S(C)(=O)=O)cc1` the “hERG current change (%, negative = inhibition) at 1uM” value was 15.4%.
For `CC(OC(=O)c1cc(=O)[nH]c2ccccc12)C(=O)Nc1ccc(Cl)cn1` (centres unmarked), the “hERG current change (%, negative = inhibition) at 1uM” value was 11.2%.
`O=C(CSc1nc2ccccc2s1)N/N=C/c1ccccc1C(=O)O` was tested, and the “hERG current change (%, negative = inhibition) at 1uM” value was 30%.
For `CCOC(=O)c1c(NC(=O)CN2C(=O)NC3(CCC(C)CC3)C2=O)sc(C)c1-c1ccc(C)cc1` (centres unmarked), the “hERG current change (%, negative = inhibition) at 1uM” value was 6.35%.
In the case of `Cc1cc(NCCN)nc2ccccc12.O=[N+]([O-])O`, the “hERG current change (%, negative = inhibition) at 1uM” value is reported as 15.2%.
For `CCN1CCN(CC(=O)Nc2cccc(C)c2C)C(=O)C1=O`, the “hERG current change (%, negative = inhibition) at 1uM” value was 4%.
For `CCc1cc(C(c2ccccc2OC)N2CCOCC2)c(NC(=O)c2ccccc2)s1` (centres unmarked), the “hERG current change (%, negative = inhibition) at 1uM” value was 16.1%.
`COc1ccc(-c2c[n+](CC(=O)c3cccs3)c3n2CCC3)cc1.[Br-]` was tested, and the “hERG current change (%, negative = inhibition) at 1uM” value was 15.5%.
`O=C(Cc1ccccc1)NC1CCN(C(=O)NCc2ccccc2)CC1` was tested, and the “hERG current change (%, negative = inhibition) at 1uM” value was -8.61%.
For `O=C(COc1cccnc1[N+](=O)[O-])NC1CCS(=O)(=O)C1` (centres unmarked), the “hERG current change (%, negative = inhibition) at 1uM” value was 15.7%.
`COc1cc(C(=O)N2CCN(c3ccccn3)CC2)cc(OC)c1OC` was tested, and the “hERG current change (%, negative = inhibition) at 1uM” value was 10.4%.
